Paper PMC12820563, “FoxP3 forms a head-to-head dimer in vivo and stabilizes its multimerization on adjacent microsatellites”
Some of the results follow.

What follows are sequences tested against T1, MBP-FoxP1dN (Mus musculus, UniProt P58462 326-579) (assay: PD-seq (MBP pull-down with sequencing); 20 mM Tris-HCl pH 7.5, 100 mM NaCl, 1.5 mM MgCl2, 0.4 uM protein, 0.1 uM dsDNA library, 30 min, room temperature, amylose pull-down; high values mean tight binding). Conditions: protein: recombinant; tags: His6-MBP; chain copies: 2; dsDNA, one strand shown.
T1 sequence: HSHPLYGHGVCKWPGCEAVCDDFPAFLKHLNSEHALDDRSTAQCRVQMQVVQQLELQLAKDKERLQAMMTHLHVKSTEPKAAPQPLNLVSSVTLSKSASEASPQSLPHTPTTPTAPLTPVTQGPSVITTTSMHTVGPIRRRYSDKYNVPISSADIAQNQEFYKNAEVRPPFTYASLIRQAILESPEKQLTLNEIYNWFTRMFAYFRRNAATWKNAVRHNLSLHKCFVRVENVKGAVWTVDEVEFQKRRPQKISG
Outline: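 Mouse FoxP3 or FoxP1 fragment lacking the N-terminus, His6-MBP-tagged and expressed in E. coli, was incubated at 0.4 µM with 0.1 µM Klenow-filled degenerate double-stranded DNA library for 30 min at room temperature in Tris pH 7.5 buffer with NaCl and MgCl2. Complexes captured on amylose resin were washed three times and their DNA sequenced on Illumina. Binding is reads-per-million enrichment of pull-down over input, replicates pooled.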

Row | Sequence | binding signal
1 | GATGATTGTTCTCCCAGCTGATGAATTCATGTAATCGAGTAAACAAATTTTCCTAATCTTTCTGTTCAAGCGCCATCTAC | 1.5 RPM ratio (pull-down/input)
2 | GATGATTGTTCTCCCAGCTGATGAATTGTTGCGGTCGAGTAAACAAATTTTCCTAATCTTTCTGTTCAAGCGCCATCTAC | 1.28 RPM ratio (pull-down/input)
3 | GATGATTGTTCTCCCAGCTGATGAATTCGTCCTTTCGAGTAAACAAATTTTCCTAATCTTTCTGTTCAAGCGCCATCTAC | 0.845 RPM ratio (pull-down/input)
4 | GATGATTGTTCTCCCAGCTGATGAATTTCGGCCTTCGAGTAAACAAATTTTCCTAATCTTTCTGTTCAAGCGCCATCTAC | 0.824 RPM ratio (pull-down/input)
5 | GATGATTGTTCTCCCAGCTGATGAATTGCTAAGTTCGAGTAAACAAATTTTCCTAATCTTTCTGTTCAAGCGCCATCTAC | 1.07 RPM ratio (pull-down/input)
6 | GATGATTGTTCTCCCAGCTGATGAATTCACGTGTTCGAGTAAACAAATTTTCCTAATCTTTCTGTTCAAGCGCCATCTAC | 1.02 RPM ratio (pull-down/input)
7 | GATGATTGTTCTCCCAGCTGATGAATTCTAAAATTCGAGTAAACAAATTTTCCTAATCTTTCTGTTCAAGCGCCATCTAC | 0.867 RPM ratio (pull-down/input)
8 | GATGATTGTTCTCCCAGCTGATGAATTCACATGGTCGAGTAAACAAATTTTCCTAATCTTTCTGTTCAAGCGCCATCTAC | 0.9 RPM ratio (pull-down/input)
9 | GATGATTGTTCTCCCAGCTGATGAATTGTATCTTTCGAGTAAACAAATTTTCCTAATCTTTCTGTTCAAGCGCCATCTAC | 1.31 RPM ratio (pull-down/input)
10 | GATGATTGTTCTCCCAGCTGATGAATTCATGGCGTCGAGTAAACAAATTTTCCTAATCTTTCTGTTCAAGCGCCATCTAC | 0.863 RPM ratio (pull-down/input)
11 | GATGATTGTTCTCCCAGCTGATGAATTATGCGTTTCGAGTAAACAAATTTTCCTAATCTTTCTGTTCAAGCGCCATCTAC | 1.06 RPM ratio (pull-down/input)
12 | GATGATTGTTCTCCCAGCTGATGAATTCGCTCCCTCGAGTAAACAAATTTTCCTAATCTTTCTGTTCAAGCGCCATCTAC | 0.784 RPM ratio (pull-down/input)
13 | GATGATTGTTCTCCCAGCTGATGAATTACTTTAATCGAGTAAACAAATTTTCCTAATCTTTCTGTTCAAGCGCCATCTAC | 1.26 RPM ratio (pull-down/input)
14 | GATGATTGTTCTCCCAGCTGATGAATTCCGCGGCTCGAGTAAACAAATTTTCCTAATCTTTCTGTTCAAGCGCCATCTAC | 0.784 RPM ratio (pull-down/input)
15 | GATGATTGTTCTCCCAGCTGATGAATTTGATCGATCGAGTAAACAAATTTTCCTAATCTTTCTGTTCAAGCGCCATCTAC | 0.901 RPM ratio (pull-down/input)
16 | GATGATTGTTCTCCCAGCTGATGAATTATCGCTATCGAGTAAACAAATTTTCCTAATCTTTCTGTTCAAGCGCCATCTAC | 1.17 RPM ratio (pull-down/input)
17 | GATGATTGTTCTCCCAGCTGATGAATTGCGTGCTTCGAGTAAACAAATTTTCCTAATCTTTCTGTTCAAGCGCCATCTAC | 1.12 RPM ratio (pull-down/input)
18 | GATGATTGTTCTCCCAGCTGATGAATTTGCAGCGTCGAGTAAACAAATTTTCCTAATCTTTCTGTTCAAGCGCCATCTAC | 0.944 RPM ratio (pull-down/input)
19 | GATGATTGTTCTCCCAGCTGATGAATTTTCCGTGTCGAGTAAACAAATTTTCCTAATCTTTCTGTTCAAGCGCCATCTAC | 0.971 RPM ratio (pull-down/input)
20 | GATGATTGTTCTCCCAGCTGATGAATTCCGCGGGTCGAGTAAACAAATTTTCCTAATCTTTCTGTTCAAGCGCCATCTAC | 0.762 RPM ratio (pull-down/input)
21 | GATGATTGTTCTCCCAGCTGATGAATTGGGACTGTCGAGTAAACAAATTTTCCTAATCTTTCTGTTCAAGCGCCATCTAC | 0.862 RPM ratio (pull-down/input)

Row | Sequence | binding signal
22 | GATGATTGTTCTCCCAGCTGATGAATTGCGGCTATCGAGTAAACAAATTTTCCTAATCTTTCTGTTCAAGCGCCATCTAC | 1.02 RPM ratio (pull-down/input)
23 | GATGATTGTTCTCCCAGCTGATGAATTCAAGTGCTCGAGTAAACAAATTTTCCTAATCTTTCTGTTCAAGCGCCATCTAC | 0.841 RPM ratio (pull-down/input)
24 | GATGATTGTTCTCCCAGCTGATGAATTGTGGTTTTCGAGTAAACAAATTTTCCTAATCTTTCTGTTCAAGCGCCATCTAC | 1.28 RPM ratio (pull-down/input)
25 | GATGATTGTTCTCCCAGCTGATGAATTTTATGGGTCGAGTAAACAAATTTTCCTAATCTTTCTGTTCAAGCGCCATCTAC | 0.846 RPM ratio (pull-down/input)
26 | GATGATTGTTCTCCCAGCTGATGAATTGCATCAGTCGAGTAAACAAATTTTCCTAATCTTTCTGTTCAAGCGCCATCTAC | 1.28 RPM ratio (pull-down/input)
27 | GATGATTGTTCTCCCAGCTGATGAATTCGGCGGTTCGAGTAAACAAATTTTCCTAATCTTTCTGTTCAAGCGCCATCTAC | 0.767 RPM ratio (pull-down/input)
28 | GATGATTGTTCTCCCAGCTGATGAATTCAAGAACTCGAGTAAACAAATTTTCCTAATCTTTCTGTTCAAGCGCCATCTAC | 0.816 RPM ratio (pull-down/input)
29 | GATGATTGTTCTCCCAGCTGATGAATTAAAGCAATCGAGTAAACAAATTTTCCTAATCTTTCTGTTCAAGCGCCATCTAC | 1.32 RPM ratio (pull-down/input)
30 | GATGATTGTTCTCCCAGCTGATGAATTCAAGTCTTCGAGTAAACAAATTTTCCTAATCTTTCTGTTCAAGCGCCATCTAC | 0.878 RPM ratio (pull-down/input)
31 | GATGATTGTTCTCCCAGCTGATGAATTCCAGCCCTCGAGTAAACAAATTTTCCTAATCTTTCTGTTCAAGCGCCATCTAC | 0.686 RPM ratio (pull-down/input)
32 | GATGATTGTTCTCCCAGCTGATGAATTCGAGCTTTCGAGTAAACAAATTTTCCTAATCTTTCTGTTCAAGCGCCATCTAC | 0.841 RPM ratio (pull-down/input)
33 | GATGATTGTTCTCCCAGCTGATGAATTTATGGAATCGAGTAAACAAATTTTCCTAATCTTTCTGTTCAAGCGCCATCTAC | 1.22 RPM ratio (pull-down/input)
34 | GATGATTGTTCTCCCAGCTGATGAATTGAGACTGTCGAGTAAACAAATTTTCCTAATCTTTCTGTTCAAGCGCCATCTAC | 0.872 RPM ratio (pull-down/input)
35 | GATGATTGTTCTCCCAGCTGATGAATTTCCCTCATCGAGTAAACAAATTTTCCTAATCTTTCTGTTCAAGCGCCATCTAC | 0.899 RPM ratio (pull-down/input)
36 | GATGATTGTTCTCCCAGCTGATGAATTCGCAATCTCGAGTAAACAAATTTTCCTAATCTTTCTGTTCAAGCGCCATCTAC | 0.94 RPM ratio (pull-down/input)
37 | GATGATTGTTCTCCCAGCTGATGAATTGCCTTCATCGAGTAAACAAATTTTCCTAATCTTTCTGTTCAAGCGCCATCTAC | 1.01 RPM ratio (pull-down/input)
38 | GATGATTGTTCTCCCAGCTGATGAATTTTGCCCATCGAGTAAACAAATTTTCCTAATCTTTCTGTTCAAGCGCCATCTAC | 0.919 RPM ratio (pull-down/input)
39 | GATGATTGTTCTCCCAGCTGATGAATTAAGACATTCGAGTAAACAAATTTTCCTAATCTTTCTGTTCAAGCGCCATCTAC | 0.975 RPM ratio (pull-down/input)
40 | GATGATTGTTCTCCCAGCTGATGAATTTGGTGGATCGAGTAAACAAATTTTCCTAATCTTTCTGTTCAAGCGCCATCTAC | 0.88 RPM ratio (pull-down/input)
41 | GATGATTGTTCTCCCAGCTGATGAATTAATTCTGTCGAGTAAACAAATTTTCCTAATCTTTCTGTTCAAGCGCCATCTAC | 0.921 RPM ratio (pull-down/input)
42 | GATGATTGTTCTCCCAGCTGATGAATTCTCAGTGTCGAGTAAACAAATTTTCCTAATCTTTCTGTTCAAGCGCCATCTAC | 0.897 RPM ratio (pull-down/input)

Row | Sequence | binding signal
43 | GATGATTGTTCTCCCAGCTGATGAATTGCGCGCCTCGAGTAAACAAATTTTCCTAATCTTTCTGTTCAAGCGCCATCTAC | 1.08 RPM ratio (pull-down/input)
44 | GATGATTGTTCTCCCAGCTGATGAATTCTTTGTATCGAGTAAACAAATTTTCCTAATCTTTCTGTTCAAGCGCCATCTAC | 1.21 RPM ratio (pull-down/input)
45 | GATGATTGTTCTCCCAGCTGATGAATTGTCTCCATCGAGTAAACAAATTTTCCTAATCTTTCTGTTCAAGCGCCATCTAC | 1.11 RPM ratio (pull-down/input)
46 | GATGATTGTTCTCCCAGCTGATGAATTTGGCTGGTCGAGTAAACAAATTTTCCTAATCTTTCTGTTCAAGCGCCATCTAC | 0.811 RPM ratio (pull-down/input)
47 | GATGATTGTTCTCCCAGCTGATGAATTAGGCTCTTCGAGTAAACAAATTTTCCTAATCTTTCTGTTCAAGCGCCATCTAC | 0.827 RPM ratio (pull-down/input)
48 | GATGATTGTTCTCCCAGCTGATGAATTATTTCTTTCGAGTAAACAAATTTTCCTAATCTTTCTGTTCAAGCGCCATCTAC | 1.17 RPM ratio (pull-down/input)
49 | GATGATTGTTCTCCCAGCTGATGAATTCTACGCTTCGAGTAAACAAATTTTCCTAATCTTTCTGTTCAAGCGCCATCTAC | 0.86 RPM ratio (pull-down/input)
50 | GATGATTGTTCTCCCAGCTGATGAATTATACTGTTCGAGTAAACAAATTTTCCTAATCTTTCTGTTCAAGCGCCATCTAC | 1.01 RPM ratio (pull-down/input)
51 | GATGATTGTTCTCCCAGCTGATGAATTAATTTCCTCGAGTAAACAAATTTTCCTAATCTTTCTGTTCAAGCGCCATCTAC | 0.884 RPM ratio (pull-down/input)
52 | GATGATTGTTCTCCCAGCTGATGAATTACATCAATCGAGTAAACAAATTTTCCTAATCTTTCTGTTCAAGCGCCATCTAC | 1.33 RPM ratio (pull-down/input)
53 | GATGATTGTTCTCCCAGCTGATGAATTCGAGCACTCGAGTAAACAAATTTTCCTAATCTTTCTGTTCAAGCGCCATCTAC | 0.796 RPM ratio (pull-down/input)
54 | GATGATTGTTCTCCCAGCTGATGAATTCCCCGTCTCGAGTAAACAAATTTTCCTAATCTTTCTGTTCAAGCGCCATCTAC | 0.798 RPM ratio (pull-down/input)
55 | GATGATTGTTCTCCCAGCTGATGAATTACCCTGTTCGAGTAAACAAATTTTCCTAATCTTTCTGTTCAAGCGCCATCTAC | 0.947 RPM ratio (pull-down/input)
56 | GATGATTGTTCTCCCAGCTGATGAATTATTTGCCTCGAGTAAACAAATTTTCCTAATCTTTCTGTTCAAGCGCCATCTAC | 1.52 RPM ratio (pull-down/input)
57 | GATGATTGTTCTCCCAGCTGATGAATTCTATAACTCGAGTAAACAAATTTTCCTAATCTTTCTGTTCAAGCGCCATCTAC | 0.885 RPM ratio (pull-down/input)
58 | GATGATTGTTCTCCCAGCTGATGAATTGTTCTCTTCGAGTAAACAAATTTTCCTAATCTTTCTGTTCAAGCGCCATCTAC | 1.26 RPM ratio (pull-down/input)
59 | GATGATTGTTCTCCCAGCTGATGAATTGGGTCCCTCGAGTAAACAAATTTTCCTAATCTTTCTGTTCAAGCGCCATCTAC | 0.768 RPM ratio (pull-down/input)
60 | GATGATTGTTCTCCCAGCTGATGAATTTATACACTCGAGTAAACAAATTTTCCTAATCTTTCTGTTCAAGCGCCATCTAC | 1.16 RPM ratio (pull-down/input)
61 | GATGATTGTTCTCCCAGCTGATGAATTGGACTTCTCGAGTAAACAAATTTTCCTAATCTTTCTGTTCAAGCGCCATCTAC | 0.731 RPM ratio (pull-down/input)
62 | GATGATTGTTCTCCCAGCTGATGAATTCTACGCATCGAGTAAACAAATTTTCCTAATCTTTCTGTTCAAGCGCCATCTAC | 1.07 RPM ratio (pull-down/input)
63 | GATGATTGTTCTCCCAGCTGATGAATTGAACAGGTCGAGTAAACAAATTTTCCTAATCTTTCTGTTCAAGCGCCATCTAC | 0.784 RPM ratio (pull-down/input)
